# Reference: the supplement of paper PMC10338343
# ± gives the standard deviation. Only a part is listed here, and it is no random draw.
# Test system: MIWI (PIWIL1) piRISC loaded with piRNA #1 (30 nt)
# Assay: pre-steady-state target cleavage rate (min^-1); MIWI and MILI are mouse PIWI proteins and EfPiwi is from a freshwater sponge; tags in brackets are library labels; higher = faster piRNA-guided slicing of the target
# Details: guide: piRNA #1 5'p-UGAGGUAGUAGGUUGUAUAGUAUCCAGAGG; auxiliary factor: 500 nM mouse GTSF1
# How it was run: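 The pre-steady-state cleavage rate was obtained by Cleave-'n-Seq with a burst-and-steady-state fit. A transcribed, DNA-blocked target RNA library (0.1 nM) was mixed with 1 nM active affinity-purified piRISC carrying one synthetic guide, with or without 500 nM GTSF1 partner protein, in HEPES–potassium acetate buffer at 33 °C for 0–8 or 0–960 min. Uncleaved targets were sequenced and normalised to depth and to weakly complementary targets, with three trials pooled and k3 capped at 0.0001 min^-1.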
row,Sequence,pre-steady-state target cleavage rate
1,GGAGACCAUACUAUACAACCAACUACGUCA,0.0656 ± 0.007
2,GGAGACCUAUGUAUACAACCUAGUACCUCA,0.0423 ± 0.0077
3,CCUCUGGAUACUAUACAAACUACUACCUCA,1.27 ± 0.047
4,GGACUGGAUACUAUAAAACCUACUACCUCA,1.66 ± 0.13
5,GGACACCAUACUAUACAACCUACUACCUCA,1.38 ± 0.1
6,GGAGUGGAUACUAUACAUCGUACUACCUCA,0.464 ± 0.048
7,CCUCUGGAUACUAUACAUCCUAGUACCUCA,0.194 ± 0.031
8,GGAGACCUUACUAUUCAAGCUACUACCUCA,0.711 ± 0.05
9,GGAGAGGAUACAAUACAACCUACUAGCUCA,0.374 ± 0.041
10,GGUCUGGUUACUAUAGAACCUACUACCUCA,0.924 ± 0.067
11,GGAGACCUAUGUAUACAUCCUACUACCACA,0.0109 ± 0.0035
12,GGAGAGGAUACUAUACAACCUACUACCUGCA,0.907 ± 0.073
13,GGUCUGGAUACAAUAGAACCUACUACCUCA,1.07 ± 0.076
14,GGUCAGGAUACUAUAGAACCUACUACCUCA,0.492 ± 0.051
15,GCUCUGGAUACUAUACAACCUACUGACCUCA,0.687 ± 0.047
16,GCUCUGGAUACUAUACAACCUUCUAGCUCA,0.266 ± 0.041
17,GCUCUGGAUUCUAUACAACCUACAACCUCA,0.633 ± 0.041
18,GGAGACCAUACUAUACAAGCUACUAGCUCA,0.372 ± 0.056
19,GCUCUGCAUACUUUACAACCUACUACCUCA,1.68 ± 0.11
20,GGAGAGGAUACUAUACAACCUACUACCACA,1.03 ± 0.067
21,CCUCUGGAUACUAUAGAACCUACUUCCUCA,0.3 ± 0.039
22,GGAGUGGAUACUAUACAACGAACUACCUCA,0.0199 ± 0.0037
23,GGAGAGCAUACUAUACAACCUACUACCACA,1.29 ± 0.062
24,GGAGACCUUAGAAUACAACCUACUACCUCA,0.00641 ± 0.0034
